# Measurements published in publication PMC4336329 (PLoS ONE, 2015).
# About 14,000 (4.5%) of roughly 310,000 compounds showed an effect of 50% or more. Effects have a minus sign here. Some of the results follow.
# Target: human ether-à-go-go-related gene (hERG) potassium channel (human, UniProt Q12809)
# Assay: primary screen, population patch clamp on CHO cells stably expressing hERG
# 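Also: peak tail current of the secondary pulse compared with the same well before compound.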
# human ether-à-go-go-related gene (hERG) potassium channel, sequence (Q12809 whole entry, looked up): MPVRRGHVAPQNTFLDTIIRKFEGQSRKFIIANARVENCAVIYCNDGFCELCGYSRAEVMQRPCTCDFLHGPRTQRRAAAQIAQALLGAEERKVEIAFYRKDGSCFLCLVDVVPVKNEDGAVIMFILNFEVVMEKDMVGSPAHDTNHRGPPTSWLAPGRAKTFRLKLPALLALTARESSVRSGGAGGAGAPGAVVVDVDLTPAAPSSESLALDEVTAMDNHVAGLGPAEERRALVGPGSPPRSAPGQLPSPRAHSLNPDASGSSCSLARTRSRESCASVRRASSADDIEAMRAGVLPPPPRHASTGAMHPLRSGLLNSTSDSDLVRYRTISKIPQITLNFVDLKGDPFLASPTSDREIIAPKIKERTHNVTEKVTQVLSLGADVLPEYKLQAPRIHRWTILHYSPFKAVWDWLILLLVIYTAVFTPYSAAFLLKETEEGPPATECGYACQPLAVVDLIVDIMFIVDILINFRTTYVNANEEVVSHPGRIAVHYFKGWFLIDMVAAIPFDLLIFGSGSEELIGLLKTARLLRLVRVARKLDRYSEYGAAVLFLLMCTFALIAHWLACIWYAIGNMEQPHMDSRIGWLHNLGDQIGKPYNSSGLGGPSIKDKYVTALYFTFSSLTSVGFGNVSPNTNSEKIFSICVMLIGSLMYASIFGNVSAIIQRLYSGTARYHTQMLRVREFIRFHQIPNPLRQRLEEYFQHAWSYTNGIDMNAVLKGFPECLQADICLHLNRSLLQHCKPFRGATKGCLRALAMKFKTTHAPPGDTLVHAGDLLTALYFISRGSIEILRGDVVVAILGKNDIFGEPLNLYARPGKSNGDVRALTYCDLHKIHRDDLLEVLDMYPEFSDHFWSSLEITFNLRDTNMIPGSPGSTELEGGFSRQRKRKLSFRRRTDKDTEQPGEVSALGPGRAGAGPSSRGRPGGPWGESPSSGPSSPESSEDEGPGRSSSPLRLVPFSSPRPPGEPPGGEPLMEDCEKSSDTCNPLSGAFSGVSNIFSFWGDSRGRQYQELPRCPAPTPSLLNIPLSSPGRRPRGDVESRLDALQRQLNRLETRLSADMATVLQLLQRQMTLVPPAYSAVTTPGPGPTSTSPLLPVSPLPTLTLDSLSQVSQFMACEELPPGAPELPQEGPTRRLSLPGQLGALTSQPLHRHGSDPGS
row,SMILES,"hERG current change (%, negative = inhibition) at 10uM [%]"
1,O=C(O)c1ccccc1/C=N/NC(=O)C1CCCC1,20.8
2,CCN(CC)S(=O)(=O)c1ccc(OC)nc1,10.4
3,OC(COc1ccccc1)CN1CCN(c2ncccn2)CC1 (stereo not shown),-22.9
4,CCCCNC(=O)N1CCN(C/C=C/c2ccccc2)CC1,-29.9
5,Cc1ccc(C)c(N(C)C(=O)CCS(=O)(=O)c2cccc3nonc23)c1,4.18
6,Cc1ccc(S(=O)(=O)Nc2c(C)[nH]c(=O)[nH]c2=O)cc1C,16.4
7,CC(Sc1nnc2ccccn12)C(=O)Nc1ccc2c(c1)OCO2 (stereo not shown),-4.66
8,O=C(NCCN1CCOCC1)c1ccc(CS(=O)(=O)c2c(Cl)cccc2Cl)o1,0.302
9,COc1ccc(C)cc1NC(=O)CC1COc2ccccc2O1 (stereo not shown),-1.49
10,C=CCN1C(=O)NC(=O)/C(=C/c2ccc(OCC(=O)Nc3ccc(C)cc3)cc2)C1=O,-1.77
11,Cc1c2cccn2cc[n+]1C.[I-],-2.01
12,O=c1oc2ccccc2cc1-c1ccc(O)cc1O,9.71
13,COc1ccc(Nc2cc(C)nc3c(C)cccc23)cc1OC,-21.3
14,CCN(C(=O)COC(=O)c1cc(NS(=O)(=O)c2ccc(Cl)c([N+](=O)[O-])c2)ccc1O)C1CCCCC1,0.522
15,CCOC(=O)C1CCN(c2cc3c(cc2NC(=O)c2ccc(F)cc2)n(C)c(=O)n3C)CC1,4.47
16,O=C(Nc1ncccc1O)c1c(O)c2ccccc2[nH]c1=O,10.7
17,COc1cc(C(C)=O)ccc1OCC(=O)Nc1ccc(C)c(S(=O)(=O)N2CCCCCC2)c1,-26.3
18,Cc1ccc(C(=O)O/N=C/c2ccc3c(c2)OCO3)cc1,16.7
19,Cc1ccc(C=Nc2ccccc2C(=O)Nc2ccccc2)cc1,11.6
20,CCc1ccc(OCC(=O)NNC(=O)Cc2cccs2)cc1,4.69

row,SMILES,"hERG current change (%, negative = inhibition) at 10uM [%]"
1,CC(C)OC(=O)C1C2C=CC3(CN(CC4CCCO4)C(=O)C13)O2 (stereo not shown),27.2
2,CNC(=O)NC(=O)C(C)OC(=O)CCCc1nc2ccccc2s1 (stereo not shown),4.95
3,O=C(Nc1ccccn1)NC1CCCCC1,7.08
4,CC(NC(=O)c1cc2sccc2n1C)c1ccc2c(c1)OCCO2 (stereo not shown),-18.1
5,CC(C)n1cnc2cc(NCc3ccccn3)ccc21,-2.75
6,COc1ccc2[nH]c(C(=O)N3CCc4ccccc4C3)c(C)c2c1,5.11
7,O=C(CC1Nc2ccccc2NC1=O)Nc1ccccc1 (stereo not shown),-0.0811
8,COc1cc([N+](=O)[O-])cc2cc(C(=O)NC(C)(C)C)c(=O)oc12,-19.7
9,CCN1C(=O)/C(=C\N2CCN(c3ccc(F)cc3)CC2)SC1=S,15.5
10,O=C(NCc1cccnc1)NC1(C(F)(F)F)Oc2ccc(Cl)cc2O1 (stereo not shown),-1.22
11,Cc1occc1C(=O)NNC(=O)Nc1ccc(F)cc1F,25.4
12,N/C(Cc1cccs1)=N\OC(=O)COc1ccc(Br)cc1,-3.54
13,CN(CC1COc2ccccc2O1)C(=O)c1ccc(Cl)c(S(=O)(=O)N2CCCCCC2)c1 (stereo not shown),-25.8
14,Cc1ccc2c(c1)c1c(n2CC(O)Cn2c(C)nc3ccccc32)CCCC1 (stereo not shown),-1.67
15,Cc1ccc2[nH]c3c(c2c1)CCc1cn[nH]c1-3,16.7
16,Cc1ccc(NC(=O)COC(=O)CCOc2ccccc2C)cc1,15.8
17,O=C(Cn1c(C(=O)N2CCN(C3CCCCC3)CC2)cc2sccc21)c1ccccc1,-70.7
18,O=C(/C=C/c1ccccc1)NC(NC(=S)Nc1cccc(O)c1)C(Cl)(Cl)Cl (stereo not shown),5.34
19,Cn1c(=O)n(C)c2cc(NC(=O)COc3ccc(F)cc3)ccc21,-41.8
20,CCC(C)(C)C(=O)Nc1ncc(S(=O)(=O)c2ccc([N+](=O)[O-])cc2)s1,-25.1

row,SMILES,"hERG current change (%, negative = inhibition) at 10uM [%]"
1,Cc1cccc(OCc2nnc(SC(C)C(=O)O)n2-c2ccccc2)c1 (stereo not shown),4.08
2,COc1ccc(CCNC(=O)COC(=O)C2CC2)cc1,0.505
3,CCOC(=O)C(CC)n1cnc2c(oc3ccccc32)c1=O (stereo not shown),11.7
4,CCOC(=O)[C@@H]1[C@H]2COc3ccccc3[C@H]2N2C(=O)N(c3ccc(C)cc3)C(=O)[C@]12C,-1.42
5,O=C(/C=C/c1ccc(Br)o1)OCc1ccccc1,2.18
6,CN(Cc1ccccc1Cl)C(=O)C1CCC(=O)N(CCc2cccc(F)c2)C1 (stereo not shown),-52.5
7,CCCCOc1nc2ccccc2c(=O)n1-c1ccccc1,-11.6
8,COc1ccc(NC(=S)NC(=O)c2ccc(Br)o2)cc1,15.1
9,CCOC(=O)C(=NC1CCS(=O)(=O)C1)NNc1ccccc1Cl (stereo not shown),-2.17
10,CC(=O)N[C@H]1[C@H](OC2CCCCC2)O[C@H](COC(C)=O)[C@@H](OC(C)=O)[C@@H]1OC(C)=O,14.1
11,O=C1[C@@H]2Cc3c([nH]c4ccccc34)C(c3ccc(Cl)cc3)N2C(=O)CN1CCO (stereo partly shown),4.72
12,Cc1cc(NC(=O)CCC(=O)N(CC(=O)NCC2CCCO2)c2ccc(Cl)c(Cl)c2)no1 (stereo not shown),11.3
13,Cc1nc2c(C)cccn2c(=O)c1NC(=O)c1ccc(Br)o1,5.14
14,C=CCn1c(-c2csc3c2CCC(C)C3)n[nH]c1=S (stereo not shown),12.6
15,O=C(N/N=C/c1ccncc1)c1cc2ccccc2o1,-6.88
16,Cc1cccc(N2C(=O)CC(n3ccnc3)C2=O)c1C (stereo not shown),18.4
17,COCCCNC(=O)c1ccccc1NS(=O)(=O)c1ccc(C)cc1,5.58
18,COc1ccccc1N1CCN(C(=O)CCc2nnc3ccc(N4CCCC4)nn23)CC1,-34.1
